In PubChem BioAssay AID761 (NMMLSC, 2007):
Among all 190,000 compounds or so, about 400 (0.21%) were called active. Inconclusive means that the source gave no clear call. Such entries were picked first, then a sample of the others.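 How the source made its calls: active means percent activity GTP binding at least 20 points away from the 100% baseline, either down as inhibitor or up as activator; inconclusive means compound flagged as likely green fluorescent from well-wide comparison; inactive means the rest.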

target: Cell division control protein 42 homolog (Homo sapiens) (UniProt P60953); experiment: wildtype Cdc42 fluorescent GTP binding changes, either direction – biochemical, multiplex bead flow cytometry, Bodipy-GTP, primary screen (AID 761); details: GST-Cdc42 beads, at 10 µM, actives lie on both sides;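 further: median bead fluorescence of bound Bodipy-FL-GTP at 100 nM; 0% = excess unlabeled GTP control and 100% = no compound control; below 100% means less GTP binding so inhibitor and above means activator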
Sequence of UniProt P60953 (P60953 whole entry, looked up): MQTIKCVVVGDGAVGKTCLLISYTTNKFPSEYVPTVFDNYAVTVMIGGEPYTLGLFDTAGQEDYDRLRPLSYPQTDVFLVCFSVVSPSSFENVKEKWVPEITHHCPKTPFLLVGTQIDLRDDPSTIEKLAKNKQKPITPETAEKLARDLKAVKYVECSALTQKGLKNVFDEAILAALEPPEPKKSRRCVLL

SMILES	percent activity (GTP binding)
Cc1ccc(CSc2ccc3nnc(-c4cccnc4)n3n2)cc1	inconclusive: 95%
Cc1noc(NC(=O)c2ccccc2C(F)(F)F)c1C#N	inactive: 96%
CN(C)c1ccnc(N(Cc2ccccc2)Cc2ccccc2)c1C#N	inactive: 102%
CCOC(=O)N1CCN(C(=O)c2ccc(Cn3c(=S)[nH]c4cc(OCC)c(OCC)cc4c3=O)cc2)CC1	inconclusive: 89%
CC(=O)c1ccccc1NC(=O)Cn1c(=O)cnc2ccccc21	inactive: 102%
Cc1ccc(OCCn2cnc(Cl)c2Cl)cc1	inactive: 97%
O=C(O)COc1ccccc1/C=N/Nc1ccc(S(=O)(=O)Nc2ccc(Cl)cc2)cc1[N+](=O)[O-]	active: 79%
COc1cc(OC)c(C2N(C)c3ccccc3N2C)cc1OC	inconclusive: 106%
Fc1ccc(-c2c[nH]c(=S)n2Cc2ccccc2)cc1	inactive: 97%
COc1ccc(CN=C(Nc2ccccc2)SC2CC(=O)N(C)C2=O)cc1 (stereo not given)	inactive: 103%
Cc1ccc(/C=C/C(=O)c2ccccc(=O)c2O)cc1C	active: 78%
Cc1ccc(Nc2cc(-n3nc(C)cc3C)ncn2)c(C)c1	inconclusive: 100%
CCn1c(SCC(=O)Nc2ccc3c(c2)c2ccccc2n3CC)nnc1-c1cnccn1	inconclusive: 87%
O=C(Cn1cnc([N+](=O)[O-])c1)NC1CCCC1	inactive: 103%
CCOCCCNC(=O)c1ccc(Cn2c(=S)[nH]c3c([nH]c4ccc(OC)cc43)c2=O)cc1	inconclusive: 95%
COCCN1Cc2cccc(C(=O)Nc3cc(C)cc(C)c3)c2C1=O	inconclusive: 88%
CC(C)CC(NC(=O)CNC(=O)C1O[C@@H]2OC(C)(C)O[C@@H]2[C@H]2OC(C)(C)O[C@@H]12)C(=O)O (stereo not given in full)	inactive: 98%
CNC(=S)N1CCN(C(=O)c2ccco2)CC1	inactive: 98%
O=C(N1CCOCC1)C12CC3CC(C1)CC(n1cnc(Cl)n1)(C3)C2	inactive: 106%
COc1ccc(O)c(CNc2ccccc2F)c1	inconclusive: 95%

SMILES	percent activity (GTP binding)
COc1cc(CN(C2CCCCC2)S(=O)(=O)c2ccc(S(=O)(=O)N(C)C3CCCCC3)cc2)cc(OC)c1OC	inactive: 107%
COc1cc(C(C)=O)ccc1Oc1ncnc2c1cnn2-c1ccc(F)cc1	inactive: 103%
CN(C)c1ccc(/C=C/C(=O)c2ccc3c(c2)OCCO3)cc1[N+](=O)[O-]	inconclusive: 92%
CCC(Sc1nc2cc3c(cc2c(=O)n1Cc1ccco1)OCO3)C(=O)Nc1ccccc1OC (stereo not given)	inconclusive: 97%
CC[n+]1oc(-c2ccccc2)cc1C	inactive: 96%
CCOC(=O)c1cccc(NC(=O)CSc2nnnn2C)c1	inconclusive: 110%
COCC(=O)Nc1ccc(Br)cc1	inconclusive: 104%
CC(=O)c1cnc(Nc2nc(C)c3ccccc3n2)nc1C	inconclusive: 103%
COc1cc(-c2nc3c(c(C)nn3-c3ccccc3)c3cc(OC)c(OC)cc23)ccc1O	inconclusive: 94%
Cc1nn2c(-c3ccccc3)nnc2c2ccccc12	inconclusive: 94%
CCN(CC)CCC(=O)c1ccc(F)cc1	inconclusive: 79%
S=C(NCCc1ccccc1)NC1CC1	inactive: 117%
Cc1ccc(Cn2nnnc2CN2CCC(NC(=O)C(C)(C)C)CC2)cc1	inconclusive: 94%
COCCNC(=O)Cn1c(=O)n(CCCCCC(=O)NCc2ccc3c(c2)OCO3)c(=O)c2sccc21	inconclusive: 91%
CCOc1ccccc1NC(=O)C(=O)N/N=C/c1ccc([N+](=O)[O-])cc1	inconclusive: 94%
CC(=O)c1ccc(NC(=S)Nc2ccc3cn[nH]c3c2)cc1	inconclusive: 86%
CCOC(=O)c1c(NC(=O)c2c(C)noc2C)sc2c1CCCCC2	inconclusive: 110%
O=C(N/N=C/c1ccccc1Br)C1CC1	inactive: 97%
CC(C)CC(NC(=O)C(NC(=O)C1OC2OC(C)(C)OC2C2OC(C)(C)OC12)C(C)C)C(=O)O (stereo not given)	inactive: 97%
CC(C(=O)NC1CCCC1)N(C(=O)c1snc(C(N)=O)c1N)c1ccc2c(c1)OCCO2 (stereo not given)	inconclusive: 110%

SMILES	percent activity (GTP binding)
C#Cc1ccc([C@@H]2C=C(C(=O)Nc3ccccc3)O[C@H](OCC)[C@H]2CCCO)cc1	inconclusive: 93%
COCCNc1ccc([N+](=O)[O-])cc1C(=O)Nc1cccc(C)n1	inactive: 101%
O=c1[nH]c2c(c3c1CCCC3)CCCC2	inconclusive: 104%
O=C(COC(=O)c1ccc(Cl)c([N+](=O)[O-])c1)Nc1ccccc1OC(F)F	inconclusive: 104%
CC(C)C(NC(=S)Nc1ccccc1)C(=O)O (stereo not given)	inactive: 101%
Cc1ccc(S(=O)(=O)/N=S(/C)c2ccccc2)cc1 (stereo not given)	inactive: 105%
O=c1oc(-c2cccs2)nc2scc(-c3cccs3)c12	inconclusive: 86%
O/N=C1\CC/C(=N\O)c2nn(-c3ccc(Cl)cc3Cl)nc21	inconclusive: 94%
Cn1c(=O)[nH]c(=O)c2c1nc(N1CCCCCC1)n2CCOc1ccccc1	inactive: 92%
Brc1ccc(Nc2nc(-c3cccnc3)cs2)cc1	inconclusive: 96%
Cc1ccc(/C=C/C(=O)Nc2cc(S(N)(=O)=O)ccc2O)cc1	inconclusive: 92%
Cc1cc(NS(=O)(=O)c2ccc(NC(=O)c3cc4c(=O)n5ccccc5nc4s3)cc2)nc(C)n1	active: 76%
Cc1ccc(Sc2ncccc2C(=O)O)c(C)c1	active: 126% [activator]
COc1ccc(N)c2c1C(=O)c1ccccc1C2=O	inconclusive: 88%
Cn1cnnc1SCC(=O)NCCc1ccc(Cl)cc1Cl	inactive: 99%
CCN(c1ccc(N=Cc2c(O)n(Cc3ccc(OC)cc3)c(=O)c3ccccc23)cc1)C(C)C	inconclusive: 293%
CCN1CCN(C(=O)CSc2nc(N)cc(N)n2)CC1	inconclusive: 82%
COc1ccccc1Cn1c(=S)[nH]c2cc(C(=O)NCc3cccnc3)ccc2c1=O	inconclusive: 95%
COc1ccc(-c2cc(=O)oc3c(C)c(OC(=O)c4cccs4)ccc23)cc1	inconclusive: 106%
CC(=O)N1CCN(CC(=O)Nc2c(Cl)ccc(C)c2Cl)CC1	inactive: 98%
